Laboratory results as given in the supplement of paper PMC4996465.
Viability of KB3-1 and Nalm-6 cells after 48 h of drug alone (CellTiter-Glo), 11 doses over about 4.5 log units. % of DMSO wells, lower = more cell loss; AC50 from the fitted curve, lower = more potent. No active / inactive call. Nalm-6 was screened in two runs. AC50 is listed only for well-fitted inhibitory curves. KB3-1 is a HeLa-derived carcinoma line, Nalm-6 a B-cell precursor leukaemia line.

How the values were obtained:
Nalm-6 = test: viability (% of DMSO control); higher = more viable cells
Protocol: (§1)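 Eleven-dose screen of the NCATS MIPE 3 library on cells without co-treatment; CellTiter-Glo after 48 h, as % of DMSO wells.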

KB3-1 = test: as above
Protocol: as §1

Work on `CC(C)(C(=O)NCC(F)(F)C(F)(F)F)C(=O)N[C@@H]1C(=O)Nc2ccccc2-c2ccccc21` yielded a viability (Nalm-6; run: 1, 0.00078 µM) of 97.7%, a viability (Nalm-6; run: 1, 0.00234 µM) of 104% and a viability (Nalm-6; run: 1, 0.00702 µM) of 107%. It also gave a viability (Nalm-6; run: 1, 0.0211 µM) of 105%, a viability (Nalm-6; run: 1, 0.0632 µM) of 105% and a viability (Nalm-6; run: 1, 0.19 µM) of 105%. It also gave a viability (Nalm-6; run: 1, 0.569 µM) of 108%, a viability (Nalm-6; run: 1, 1.71 µM) of 107% and a viability (Nalm-6; run: 1, 5.12 µM) of 106%. The viability (Nalm-6; run: 1, 15.4 µM) was 106%, the viability (Nalm-6; run: 1, 46.1 µM) was 102% and the viability (Nalm-6; run: 2, 0.00078 µM) was 103%. It also gave a viability (Nalm-6; run: 2, 0.00234 µM) of 103%, a viability (Nalm-6; run: 2, 0.00702 µM) of 109% and a viability (Nalm-6; run: 2, 0.0211 µM) of 106%. The viability (Nalm-6; run: 2, 0.0632 µM) was 107%, the viability (Nalm-6; run: 2, 0.19 µM) was 106% and the viability (Nalm-6; run: 2, 0.569 µM) was 97.4%. The viability (Nalm-6; run: 2, 1.71 µM) was 110%, the viability (Nalm-6; run: 2, 5.12 µM) was 99.5% and the viability (Nalm-6; run: 2, 15.4 µM) was 106%. The viability (Nalm-6; run: 2, 46.1 µM) was 109%, the viability (KB3-1; 0.00078 µM) was 93.4% and the viability (KB3-1; 0.00234 µM) was 103%. The viability (KB3-1; 0.00702 µM) was 97.8%, the viability (KB3-1; 0.0211 µM) was 98.2% and the viability (KB3-1; 0.0632 µM) was 84.6%. The viability (KB3-1; 0.19 µM) was 70.2%, the viability (KB3-1; 0.569 µM) was 92.8% and the viability (KB3-1; 1.71 µM) was 97.2%. The viability (KB3-1; 5.12 µM) was 98.5%, the viability (KB3-1; 15.4 µM) was 90.4% and the viability (KB3-1; 46.1 µM) was 77.8%.

`O=C1C(CCC(O)c2ccc(F)cc2)C(c2ccc(O)cc2)N1c1ccc(F)cc1` (configuration not stated) [Ezetimibe] gave a viability (Nalm-6; run: 1, 0.00078 µM) of 114%, a viability (Nalm-6; run: 1, 0.00234 µM) of 130% and a viability (Nalm-6; run: 1, 0.00702 µM) of 124%. For the same compound, the viability (Nalm-6; run: 1, 0.0211 µM) was 125%, the viability (Nalm-6; run: 1, 0.0632 µM) was 120% and the viability (Nalm-6; run: 1, 0.19 µM) was 117%. It also gave a viability (Nalm-6; run: 1, 0.569 µM) of 113%, a viability (Nalm-6; run: 1, 1.71 µM) of 115% and a viability (Nalm-6; run: 1, 5.12 µM) of 112%. The viability (Nalm-6; run: 1, 15.4 µM) was 116%, the viability (Nalm-6; run: 1, 46.1 µM) was 73.3% and the viability (Nalm-6; run: 2, 0.00078 µM) was 110%. The viability (Nalm-6; run: 2, 0.00234 µM) was 104%, the viability (Nalm-6; run: 2, 0.00702 µM) was 104% and the viability (Nalm-6; run: 2, 0.0211 µM) was 110%. It also gave a viability (Nalm-6; run: 2, 0.0632 µM) of 109%, a viability (Nalm-6; run: 2, 0.19 µM) of 101% and a viability (Nalm-6; run: 2, 0.569 µM) of 107%. It also gave a viability (Nalm-6; run: 2, 1.71 µM) of 98.6%, a viability (Nalm-6; run: 2, 5.12 µM) of 108% and a viability (Nalm-6; run: 2, 15.4 µM) of 108%. It also gave a viability (Nalm-6; run: 2, 46.1 µM) of 96.7%, a viability (KB3-1; 0.00078 µM) of 109% and a viability (KB3-1; 0.00234 µM) of 104%. It also gave a viability (KB3-1; 0.00702 µM) of 108%, a viability (KB3-1; 0.0211 µM) of 112% and a viability (KB3-1; 0.0632 µM) of 109%. The viability (KB3-1; 0.19 µM) was 107%, the viability (KB3-1; 0.569 µM) was 110% and the viability (KB3-1; 1.71 µM) was 110%. The viability (KB3-1; 5.12 µM) was 103%, the viability (KB3-1; 15.4 µM) was 109% and the viability (KB3-1; 46.1 µM) was 98.8%.

`CN1C(=O)C(Cc2c[nH]c3ccccc23)NC1=S` (configuration not stated) [Necrostatin-1] gave a viability (Nalm-6; run: 1, 0.00078 µM) of 109%, a viability (Nalm-6; run: 1, 0.00234 µM) of 125% and a viability (Nalm-6; run: 1, 0.00702 µM) of 118%. The viability (Nalm-6; run: 1, 0.0211 µM) was 109%, the viability (Nalm-6; run: 1, 0.0632 µM) was 118% and the viability (Nalm-6; run: 1, 0.19 µM) was 111%. It also gave a viability (Nalm-6; run: 1, 0.569 µM) of 120%, a viability (Nalm-6; run: 1, 1.71 µM) of 99.7% and a viability (Nalm-6; run: 1, 5.12 µM) of 97.8%. It also gave a viability (Nalm-6; run: 1, 15.4 µM) of 101%, a viability (Nalm-6; run: 1, 46.1 µM) of 98.9% and a viability (Nalm-6; run: 2, 0.00078 µM) of 112%. It also gave a viability (Nalm-6; run: 2, 0.00234 µM) of 111%, a viability (Nalm-6; run: 2, 0.00702 µM) of 109% and a viability (Nalm-6; run: 2, 0.0211 µM) of 107%. The viability (Nalm-6; run: 2, 0.0632 µM) was 106%, the viability (Nalm-6; run: 2, 0.19 µM) was 110% and the viability (Nalm-6; run: 2, 0.569 µM) was 106%. It also gave a viability (Nalm-6; run: 2, 1.71 µM) of 107%, a viability (Nalm-6; run: 2, 5.12 µM) of 104% and a viability (Nalm-6; run: 2, 15.4 µM) of 102%. It also gave a viability (Nalm-6; run: 2, 46.1 µM) of 97.1%, a viability (KB3-1; 0.00078 µM) of 98.1% and a viability (KB3-1; 0.00234 µM) of 102%. It also gave a viability (KB3-1; 0.00702 µM) of 104%, a viability (KB3-1; 0.0211 µM) of 97.3% and a viability (KB3-1; 0.0632 µM) of 101%. The viability (KB3-1; 0.19 µM) was 104%, the viability (KB3-1; 0.569 µM) was 101% and the viability (KB3-1; 1.71 µM) was 102%. It also gave a viability (KB3-1; 5.12 µM) of 101%, a viability (KB3-1; 15.4 µM) of 100% and a viability (KB3-1; 46.1 µM) of 101%.

With `Cc1cc(SCc2sc(-c3ccc(C(F)(F)F)c(F)c3)nc2C)ccc1OCC(=O)O` [GW-0742] the viability (Nalm-6; run: 1, 0.00078 µM) was 105%, the viability (Nalm-6; run: 1, 0.00234 µM) was 112% and the viability (Nalm-6; run: 1, 0.00702 µM) was 117%. For the same compound, the viability (Nalm-6; run: 1, 0.0211 µM) was 113%, the viability (Nalm-6; run: 1, 0.0632 µM) was 113% and the viability (Nalm-6; run: 1, 0.19 µM) was 114%. It also gave a viability (Nalm-6; run: 1, 0.569 µM) of 118%, a viability (Nalm-6; run: 1, 1.71 µM) of 122% and a viability (Nalm-6; run: 1, 5.12 µM) of 125%. The viability (Nalm-6; run: 1, 15.4 µM) was 115%, the viability (Nalm-6; run: 1, 46.1 µM) was 72.3% and the viability (Nalm-6; run: 2, 0.00078 µM) was 108%. The viability (Nalm-6; run: 2, 0.00234 µM) was 112%, the viability (Nalm-6; run: 2, 0.00702 µM) was 116% and the viability (Nalm-6; run: 2, 0.0211 µM) was 104%. The viability (Nalm-6; run: 2, 0.0632 µM) was 107%, the viability (Nalm-6; run: 2, 0.19 µM) was 113% and the viability (Nalm-6; run: 2, 0.569 µM) was 113%. The viability (Nalm-6; run: 2, 1.71 µM) was 110%, the viability (Nalm-6; run: 2, 5.12 µM) was 117% and the viability (Nalm-6; run: 2, 15.4 µM) was 111%. It also gave a viability (Nalm-6; run: 2, 46.1 µM) of 81.3%, a viability (KB3-1; 0.00078 µM) of 101% and a viability (KB3-1; 0.00234 µM) of 99.8%. It also gave a viability (KB3-1; 0.00702 µM) of 104%, a viability (KB3-1; 0.0211 µM) of 102% and a viability (KB3-1; 0.0632 µM) of 106%. For the same compound, the viability (KB3-1; 0.19 µM) was 100%, the viability (KB3-1; 0.569 µM) was 104% and the viability (KB3-1; 1.71 µM) was 101%. The viability (KB3-1; 5.12 µM) was 102%, the viability (KB3-1; 15.4 µM) was 100% and the viability (KB3-1; 46.1 µM) was 78.5%.
